# Reference: article PMC2913105 (British Journal of Pharmacology, 2010)
# Biological target: P2Y1 receptors (Rattus norvegicus, UniProt P49651)
# Conditions: Schild analysis, 0-300 nM antagonist
compound,measurement,setting,value
"CNc1nc(Cl)nc2c1ncn2C1CC(OP(=O)(O)O)C2(COP(=O)(O)O)CC12 (centres unmarked) [MRS2279, 2-chloro-N^6-methyl-(N)-methanocarba-2′-deoxyadenosione-3′,5′-bisphosphate]",pKD (antagonism of Ca2+ signals evoked by 2-MeSADP),agonist 2-MeSADP,8.64 ± 0.26
same,pKD (antagonism of Ca2+ signals evoked by MRS2365),agonist MRS2365,8.16 ± 0.26
